Data on three molecules can be found in patent publication US4452787A, “1-Substituted tricyclic quinazolinones having biological activity as tranquilizers” (Sandoz, Inc., priority 1982, dated 1984).

The test system of the experiment is benzodiazepine receptors. Briefly: Flunitrazepam Receptor Binding Assay, FBA Test No. 1 and FBA Test No. 2 (range of both). As to conditions: range represents the results when both FBA Test No. 1 and FBA Test No. 2 were employed.

For `O=c1c2cc(Cl)ccc2nc2n1CCCN2Cc1ccccc1` [Example 4A], the “Response - % of Control” value is reported as 1-2.6 % of Control.
Under `O=c1c2cc(Cl)ccc2nc2n1CCN2Cc1ccccc1Cl` [Example 1, 1-(o-chlorobenzyl)-7-chloro-2,3-dihydro-imidazo[2,1-b]quinazolin-5(1H)-one] stands 2-3 % of Control; under `O=c1c2cc(Cl)ccc2nc2n1CCN2c1ccc(F)cc1` [Example 3A], 8-18 % of Control.
